No constants are given. Whether binding was seen depends on the method and setting. Some binding calls cover weakened binding; strength is not graded here. Where a sequence is shown, tags or fusion partners need not be part of it. Each block holds one binder with its values, some of them ahead of it.
Assays:
[1] = target: T1, MBP-PUB22 (Arabidopsis thaliana, UniProt Q9SVC6 1-435); experiment: pull-down; MBP-PUBs or MBP on amylose resin incubated with GST-PYLs for 1 h at room temperature in 20 mM Tris-HCl pH 7.2, 10 mM MgCl2, 2 mM DTT; washed five times; blot with anti-GST antibody; both purified
T1 construct: PUB22, plant U-box E3 ubiquitin ligase, Arabidopsis thaliana; Kept on the amylose resin for the pull-down; source: E. coli BL21 (DE3), purified (amylose resin); not shown: MBP, N-terminal, kept
T1 sequence (looked up): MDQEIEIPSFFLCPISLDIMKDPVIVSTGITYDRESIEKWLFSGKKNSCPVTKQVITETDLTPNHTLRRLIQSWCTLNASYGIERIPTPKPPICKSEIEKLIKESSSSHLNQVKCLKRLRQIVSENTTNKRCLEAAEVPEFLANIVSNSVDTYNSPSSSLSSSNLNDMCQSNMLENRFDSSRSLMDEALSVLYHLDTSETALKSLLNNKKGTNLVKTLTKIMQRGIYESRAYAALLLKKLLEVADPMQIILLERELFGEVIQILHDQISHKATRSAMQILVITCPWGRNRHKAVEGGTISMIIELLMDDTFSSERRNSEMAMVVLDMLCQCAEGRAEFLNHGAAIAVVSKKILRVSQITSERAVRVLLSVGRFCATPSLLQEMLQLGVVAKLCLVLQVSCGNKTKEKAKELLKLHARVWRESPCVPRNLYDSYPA

[2] = target: T2, BD-PYL10 (Arabidopsis thaliana) (UniProt Q8H1R0); experiment: two-hybrid; BD-PYLs (pGBKT7) with AD-PUBs (pGADT7) in yeast; growth on SC medium lacking Tryptophan, Leucine and Histidine
T2 sequence: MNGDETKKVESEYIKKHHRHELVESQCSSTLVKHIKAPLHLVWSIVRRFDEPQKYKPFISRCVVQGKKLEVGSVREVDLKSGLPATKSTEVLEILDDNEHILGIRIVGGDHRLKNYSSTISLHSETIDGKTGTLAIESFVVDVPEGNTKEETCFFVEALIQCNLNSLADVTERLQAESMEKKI

[3] = target: T3, BD-PYL8 (Arabidopsis thaliana) (UniProt Q9FGM1); experiment: as above
T3 sequence: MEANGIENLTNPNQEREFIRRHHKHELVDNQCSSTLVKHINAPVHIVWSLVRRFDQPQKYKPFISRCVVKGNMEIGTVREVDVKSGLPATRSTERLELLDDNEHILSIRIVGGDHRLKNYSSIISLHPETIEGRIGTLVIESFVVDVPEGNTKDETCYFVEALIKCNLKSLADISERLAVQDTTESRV

[4] = target: T4, BD-PYL7 (Arabidopsis thaliana) (UniProt Q1ECF1); experiment: as above
T4 sequence: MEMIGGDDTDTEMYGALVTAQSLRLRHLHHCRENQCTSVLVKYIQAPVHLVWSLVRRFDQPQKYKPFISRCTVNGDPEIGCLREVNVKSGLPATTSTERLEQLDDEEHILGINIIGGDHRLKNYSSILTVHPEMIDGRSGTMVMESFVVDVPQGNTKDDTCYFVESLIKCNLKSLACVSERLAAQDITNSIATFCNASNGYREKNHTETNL

[5] = target: T5, BD-PYL5 (Arabidopsis thaliana) (UniProt Q9FLB1); experiment: as above
T5 sequence: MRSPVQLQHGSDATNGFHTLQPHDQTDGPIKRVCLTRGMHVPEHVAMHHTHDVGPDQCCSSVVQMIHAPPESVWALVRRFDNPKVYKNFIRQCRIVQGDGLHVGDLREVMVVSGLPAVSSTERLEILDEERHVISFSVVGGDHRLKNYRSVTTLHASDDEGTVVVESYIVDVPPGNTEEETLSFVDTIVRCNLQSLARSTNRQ

[6] = target: T6, BD-PYL9 (Arabidopsis thaliana) (UniProt Q84MC7); experiment: as above
T6 sequence: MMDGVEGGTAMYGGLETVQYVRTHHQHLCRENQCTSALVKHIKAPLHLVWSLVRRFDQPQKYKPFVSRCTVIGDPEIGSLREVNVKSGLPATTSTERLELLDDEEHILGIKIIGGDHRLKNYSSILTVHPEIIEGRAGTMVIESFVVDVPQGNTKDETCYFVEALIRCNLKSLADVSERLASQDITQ

B1: GST-PYL10 (receptor, UniProt Q8H1R0 1-183)
chain: T2 sequence
binding [1]: no binding

B4: AD-PUB23 (enzyme, UniProt Q84TG3 1-411)
chain: MSGGIMDEEIEIPPFFLCPISLEIMKDPVIVSTGITYDRDSIEKWLFAGKKNSCPVTKQDITDADLTPNHTLRRLIQSWCTLNASYGVERIPTPRPPICKSEIEKLIRDSASSHENQVKCLKRLRQIVSENATNKRCLEAAGVPEFLANIVSNDSENGSLTDEALNLLYHLETSETVLKNLLNNKKDNNIVKSLTKIMQRGMYESRVYATLLLKNILEVADPMQSMTLKPEVFTEVVQILDDRISQKATKAAMHILVNICPWGRNRHKAVEAGVISVIIELLMDESFTSERRGPEMAMVVLDLLCQCAEGRAEFLNHGAAIAVVCKKILRVSQTASDRAVRVLLSVGRFCATPALLHEMLQLGVVAKLCLVLQVSCGGKTKEKAKELLKLHARVWKDSPCLPKNMILAYPC
binding [6]: binds

The remaining lines, values ahead:

binding [2]: no binding
binding [3]: binds
binding [4]: binds
binding [5]: binds
B2: AD-PUB22 (enzyme, UniProt Q9SVC6 1-435)
chain: T1 sequence (looked up)

binding [6]: no binding
B3: AD-PUB18 (enzyme, UniProt Q9XIJ5 1-697)
chain: MIHTKTGSGRRILTFPTVEPSESISIVTLLDSLIQLAGDILTFKSKHFSTNKQSFRETLRRIQNLLVVFEEIRIRIRNSRRYFHDSAAASSLKEIHVGFQKLKFLLEDCTRDGARLCMMMNSDQVSDHLRVLTRSISTSLSAFPVASVDLTTEVNELIDLVVRQARKYGVQPETNDKRAVSSINRILALFVNRVVPDPDEINRILDHVGIRKWGDCVKEINFLGEEIDAERLDEKKKKSSDQVELLSSLMGFICYCRCIILGRIERDDHHNHHEDGIKKDHDLIRGLKVEDLLCPISLEIMTDPVVIETGHTYDRSSITKWFGSGNITCPITGKILTSTELVDNVSVRQVIRKHCKTNGIVLAGISRRRKSHDDVVPESLAAKGAGKLIAKFLTSELINGGEEMIYRAVREIRVQTKTSSFNRSCLVKAGAVTPLLKLLSSVDIRIQENAMAGILNLSKHVTGKSKIAGEGLKILVEILNEGAKTETRLYSASALFYLSSVEDYSRLIGENPDAIPGLMNIVKGDDYGDSAKRSALLAVMGLLMQSDNHWRVLAAGAVPILLDLLRSGEISGGLTADCLATLAKLAEYPDGTIGVIRRGGLKLAVKILSSSEDSPVAVKQHCVGLILNLCLNGGRDVVGVLVKNSLVMGSLYTVLSNGEYGGSKKASALIRMIHEFQERKTGSVEPNLQRGRFVHAW
